Here are results for 115 sequences from the BET-seq Pho4 binding data (Le et al. 2018).

This is one part of the list. Values were computed here from the reads of four pooled replicates and scatter widely.

This assay deals with T1, Pho4 (S. cerevisiae) (UniProt P07270).
T1 sequence: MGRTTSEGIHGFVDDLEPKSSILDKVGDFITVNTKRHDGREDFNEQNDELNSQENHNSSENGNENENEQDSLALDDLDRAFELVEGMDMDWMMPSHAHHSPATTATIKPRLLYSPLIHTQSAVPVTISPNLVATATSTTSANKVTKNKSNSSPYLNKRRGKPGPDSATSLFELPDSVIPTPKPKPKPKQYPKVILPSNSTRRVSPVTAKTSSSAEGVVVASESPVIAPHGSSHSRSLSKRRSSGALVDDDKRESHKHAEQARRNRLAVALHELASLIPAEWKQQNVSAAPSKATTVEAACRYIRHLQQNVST
The assay can be described thus: relative binding free energy (BET-seq); higher = weaker binding. Conditions: reference: library average.
As to TTGTACACGTGAACGG, the “relative binding free energy” value is 0.19 kcal/mol.

Consider TGTCGCACGTGATTGT, for which the “relative binding free energy” value was -0.01 kcal/mol.

On to GGGAGCACGTGATAGG, for which the “relative binding free energy” value worked out at 0.04 kcal/mol.

Regarding GGGTACACGTGTTCTA, the “relative binding free energy” value worked out at 0.05 kcal/mol.

GTGTTCACGTGTTCCG: the “relative binding free energy” value amounted to 0.49 kcal/mol.

On to CTTAGCACGTGGGGGA, for which the “relative binding free energy” value was -0.12 kcal/mol.

Take TATTGCACGTGCCAGG: the “relative binding free energy” value was 0.02 kcal/mol.

Take GGTTTCACGTGTGACT: the “relative binding free energy” value was found to be 0.34 kcal/mol.

As to TCTGTCACGTGTGCGG, the “relative binding free energy” value turned out to be 0.12 kcal/mol.

As to CGGGGCACGTGCGGGA, the “relative binding free energy” value was -0.22 kcal/mol.

Take CAGTTCACGTGAAATG: the “relative binding free energy” value is 0.5 kcal/mol.

On to TTTTACACGTGGGGCG, for which the “relative binding free energy” value came out at 0 kcal/mol.

GAAGTCACGTGGAATT: the “relative binding free energy” value is 0.32 kcal/mol.

As for TTATGCACGTGGTTAT, the “relative binding free energy” value was -0.12 kcal/mol.

For the sequence TTGTACACGTGTTATA, the “relative binding free energy” value is 0.16 kcal/mol.

With AAGCACACGTGTGTGG, the “relative binding free energy” value came out at 0.1 kcal/mol.

For the sequence TGATACACGTGGGATG, the “relative binding free energy” value came out at 0.06 kcal/mol.

Turning to CTTGGCACGTGGGGTG, the “relative binding free energy” value is -0.21 kcal/mol.

As to TATGTCACGTGGGGCA, the “relative binding free energy” value is -0.21 kcal/mol.

As for GGGTACACGTGGATCG, the “relative binding free energy” value came out at 0.03 kcal/mol.

As for GGAGGCACGTGGAAAT, the “relative binding free energy” value came out at 0.01 kcal/mol.

As for GTAGGCACGTGGCTGT, the “relative binding free energy” value is -0.13 kcal/mol.

Turning to GGCGGCACGTGTGGTT, the “relative binding free energy” value was -0.03 kcal/mol.

On to TTAAACACGTGGGAGG, for which the “relative binding free energy” value is -0.03 kcal/mol.

In the case of TAGGGCACGTGTATGC, the “relative binding free energy” value is -0.15 kcal/mol.

For the sequence TGCGTCACGTGCTATG, the “relative binding free energy” value was 0.08 kcal/mol.

As to CGAGTCACGTGGGGTC, the “relative binding free energy” value was determined as 0.02 kcal/mol.

Consider GTTTACACGTGCCGGT, for which the “relative binding free energy” value is 0.14 kcal/mol.

As for TCGTGCACGTGGATTG, the “relative binding free energy” value was -0.03 kcal/mol.

For the sequence GGGTGCACGTGCTGAG, the “relative binding free energy” value was -0.07 kcal/mol.

In the case of TTGTGCACGTGCAGAG, the “relative binding free energy” value amounted to 0.09 kcal/mol.

AAGGTCACGTGGCGTT: the “relative binding free energy” value is 0.01 kcal/mol.

Regarding ATATGCACGTGTTTGG, the “relative binding free energy” value is 0.02 kcal/mol.

As for AGGTTCACGTGAAATA, the “relative binding free energy” value stood at 0.35 kcal/mol.

On to GTGCTCACGTGTGGCG, for which the “relative binding free energy” value amounted to 0.25 kcal/mol.

As to AGTACCACGTGGGGTC, the “relative binding free energy” value amounted to 0 kcal/mol.

As for ATGGGCACGTGGCACG, the “relative binding free energy” value is -0.29 kcal/mol.

For the sequence TACTTCACGTGTGGTA, the “relative binding free energy” value was found to be 0.31 kcal/mol.

In the case of AGATGCACGTGTGAGA, the “relative binding free energy” value worked out at 0.12 kcal/mol.

Consider TAAGTCACGTGAGGAT, for which the “relative binding free energy” value worked out at 0.31 kcal/mol.

Turning to GAAGGCACGTGGGTGA, the “relative binding free energy” value was -0.2 kcal/mol.

As for AGTCTCACGTGATTTG, the “relative binding free energy” value was determined as 0.21 kcal/mol.

For the sequence GGGTCCACGTGGCGTT, the “relative binding free energy” value was -0.11 kcal/mol.

For TTGTGCACGTGTTAAG, the “relative binding free energy” value turned out to be 0.12 kcal/mol.

Consider GTTGTCACGTGAGGGA, for which the “relative binding free energy” value was 0.3 kcal/mol.

For TCTTTCACGTGAAGGT, the “relative binding free energy” value is 0.35 kcal/mol.

For GAGCTCACGTGTGGTT, the “relative binding free energy” value came to 0.26 kcal/mol.

In the case of GCTGTCACGTGTTGTC, the “relative binding free energy” value came out at 0.15 kcal/mol.

AGGTGCACGTGTTCTA: the “relative binding free energy” value was -0.02 kcal/mol.

TCGCTCACGTGGGTTG: the “relative binding free energy” value is 0.04 kcal/mol.

Turning to TAGAACACGTGTGAGT, the “relative binding free energy” value came to 0.1 kcal/mol.

With CTTTGCACGTGGCTGT, the “relative binding free energy” value is -0.08 kcal/mol.

For the sequence GAGTTCACGTGGTATT, the “relative binding free energy” value turned out to be 0.27 kcal/mol.

Take GCGGGCACGTGAGTAG: the “relative binding free energy” value came out at 0.07 kcal/mol.

Turning to GCTAGCACGTGGGTAT, the “relative binding free energy” value is -0.07 kcal/mol.

Regarding GTCTACACGTGTTTGT, the “relative binding free energy” value was determined as 0.13 kcal/mol.

As to TTCTACACGTGGGAGT, the “relative binding free energy” value came to 0.07 kcal/mol.

On to CGGAGCACGTGTTGTT, for which the “relative binding free energy” value was -0.02 kcal/mol.

With TTAATCACGTGTACGG, the “relative binding free energy” value stood at 0.17 kcal/mol.

Take TTGATCACGTGCGGGC: the “relative binding free energy” value was -0.02 kcal/mol.

Take CTGTTCACGTGGTTAA: the “relative binding free energy” value turned out to be 0.09 kcal/mol.

For the sequence TATAACACGTGGGCTT, the “relative binding free energy” value is -0.14 kcal/mol.

For ATGTACACGTGGATTG, the “relative binding free energy” value was found to be 0.05 kcal/mol.

For GGTTTCACGTGGTAGG, the “relative binding free energy” value came out at 0.37 kcal/mol.

Consider AGTGTCACGTGGAAGA, for which the “relative binding free energy” value was 0.12 kcal/mol.

As for TCTCTCACGTGTTGTG, the “relative binding free energy” value worked out at 0.14 kcal/mol.

Consider TGGGTCACGTGATCGT, for which the “relative binding free energy” value was 0.29 kcal/mol.

GCCGTCACGTGGGTGT: the “relative binding free energy” value is -0.07 kcal/mol.

Take GGTGACACGTGTTCGG: the “relative binding free energy” value was -0.03 kcal/mol.

With CGGTTCACGTGGTGTC, the “relative binding free energy” value was 0.25 kcal/mol.

ATTTACACGTGAATTA: the “relative binding free energy” value came to 0.26 kcal/mol.

For the sequence TCATACACGTGTGGTG, the “relative binding free energy” value came out at 0.08 kcal/mol.

TATTTCACGTGCTATT: the “relative binding free energy” value came out at 0.14 kcal/mol.

Consider TGTTGCACGTGATGAC, for which the “relative binding free energy” value is 0.02 kcal/mol.

For TGTTCCACGTGGGTGG, the “relative binding free energy” value came out at 0 kcal/mol.

Regarding TGAATCACGTGTTAGG, the “relative binding free energy” value was found to be 0.24 kcal/mol.

CTGGACACGTGGGGCG: the “relative binding free energy” value is -0.1 kcal/mol.

As for GGTGTCACGTGATTGC, the “relative binding free energy” value was 0.16 kcal/mol.

For AAGTTCACGTGTCATG, the “relative binding free energy” value stood at 0.29 kcal/mol.

Regarding CGTGACACGTGTCGGT, the “relative binding free energy” value amounted to 0.05 kcal/mol.

Take TGGGTCACGTGTCAGT: the “relative binding free energy” value was 0.18 kcal/mol.

On to AGTAACACGTGTGGAA, for which the “relative binding free energy” value is -0.04 kcal/mol.

As for TCGTGCACGTGAGGCT, the “relative binding free energy” value is 0.07 kcal/mol.

For TCGGGCACGTGGAGGC, the “relative binding free energy” value is -0.09 kcal/mol.

Regarding TGGAGCACGTGACGGT, the “relative binding free energy” value turned out to be 0.14 kcal/mol.

For the sequence AGGGGCACGTGTGAAA, the “relative binding free energy” value worked out at 0.06 kcal/mol.

As for TATTCCACGTGAGTGG, the “relative binding free energy” value was 0.17 kcal/mol.

Turning to GGTGACACGTGTCGTG, the “relative binding free energy” value is 0.06 kcal/mol.

Consider AGGAACACGTGCGGTT, for which the “relative binding free energy” value stood at 0 kcal/mol.

For GCTGGCACGTGTAGGG, the “relative binding free energy” value was -0.05 kcal/mol.

For ATCGGCACGTGAATTT, the “relative binding free energy” value was 0.27 kcal/mol.

In the case of TCAAACACGTGGGGGT, the “relative binding free energy” value was -0.24 kcal/mol.

As for ACTTACACGTGTTTGT, the “relative binding free energy” value is -0.01 kcal/mol.

Turning to GTGGTCACGTGGTGAT, the “relative binding free energy” value is 0.13 kcal/mol.

As for GGAATCACGTGAATGT, the “relative binding free energy” value turned out to be 0.39 kcal/mol.

As for CTTGGCACGTGGAAGT, the “relative binding free energy” value was found to be 0.04 kcal/mol.

As for TTCATCACGTGTAGTA, the “relative binding free energy” value was determined as 0.09 kcal/mol.

As for GATTGCACGTGTAGAA, the “relative binding free energy” value was 0.21 kcal/mol.

In the case of TCGGTCACGTGGTCGA, the “relative binding free energy” value came out at 0.03 kcal/mol.

For AGCGGCACGTGAGCTG, the “relative binding free energy” value is 0.21 kcal/mol.

Consider GGCCTCACGTGTGTGG, for which the “relative binding free energy” value stood at 0.33 kcal/mol.

Take GAGTTCACGTGTGTTT: the “relative binding free energy” value is 0.4 kcal/mol.

AGTGTCACGTGTTTAC: the “relative binding free energy” value is 0.03 kcal/mol.

Turning to TGTAACACGTGGCGTG, the “relative binding free energy” value is -0.08 kcal/mol.

As for TGATGCACGTGCTGGT, the “relative binding free energy” value is -0.04 kcal/mol.

In the case of GCGGTCACGTGAGGCG, the “relative binding free energy” value stood at 0.29 kcal/mol.

For the sequence GTTTACACGTGGTGCC, the “relative binding free energy” value is 0.15 kcal/mol.

For the sequence GGTTACACGTGTTGGA, the “relative binding free energy” value was 0.27 kcal/mol.

For TGGACCACGTGTTATT, the “relative binding free energy” value came out at 0.13 kcal/mol.

As for TTTGGCACGTGGTGTG, the “relative binding free energy” value is -0.14 kcal/mol.

On to TTTATCACGTGGAAGC, for which the “relative binding free energy” value was 0.3 kcal/mol.

Turning to GTGGTCACGTGGTGTC, the “relative binding free energy” value worked out at 0.14 kcal/mol.

Consider CGGGTCACGTGGGTAA, for which the “relative binding free energy” value is -0.01 kcal/mol.

ACGGGCACGTGTGAGA: the “relative binding free energy” value was -0.04 kcal/mol.

With ATGCGCACGTGGGCAG, the “relative binding free energy” value is -0.22 kcal/mol.
